# Source: the supplement of paper PMC11348887
# Counter-ions that a name gives are not always drawn. This is one part of the list. No stated cut-off is given here; in the data, active = -2 or less and inactive = the rest. Most values come without repeats; read them as rough.
# Test system: hPSC-derived cortical neurons (WA09)
# Assay: nuclei number (viability) z-score; higher = more surviving cells
# Settings: 5 µM; treatment: days 7-14 after plating, readout day 21
# 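Further: nuclei counted from DAPI counterstain by automated high-content image analysis, four fields per well at ×20 in 384-well plates, with sequential b-score then z-score normalization.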
row,SMILES,nuclei number (z-score)
1,COc1ccc(/C=C/C(=O)Nc2ccccc2C(=O)O)cc1OC [Tranilast],inactive: -0.785
2,C=C1C(=O)[C@]23[C@H](O)[C@H]1CC[C@H]2[C@@]12CO[C@]3(O)[C@@H](O)[C@@H]1C(C)(C)CC[C@@H]2O [Oridonin],inactive: -1.35
3,CCOc1cc2ncc(C#N)c(Nc3ccc(F)c(Cl)c3)c2cc1NC(=O)/C=C/CN(C)C [Pelitinib (EKB-569)],active: -3.62
4,Oc1c(Cl)cc(Cl)c(Cl)c1Cc1c(O)c(Cl)cc(Cl)c1Cl [Hexachlorophene],inactive: -0.145
5,Cc1c(N(C)C)c(=O)n(-c2ccccc2)n1C [Amidopyrine],inactive: 0.0194
6,Cc1cc(/C=C/C#N)cc(C)c1Nc1ccnc(Nc2ccc(C#N)cc2)n1 [Rilpivirine],inactive: 0.662
7,CC(=O)[C@H]1CC[C@H]2[C@@H]3C=CC4=CC(=O)CC[C@@]4(C)[C@@H]3CC[C@]12C [Dydrogesterone],inactive: 1.07
8,O=S(=O)(NCCSSCCNS(=O)(=O)c1cc(Cl)ccc1Cl)c1cc(Cl)ccc1Cl,inactive: 0.269
9,Cc1cc(=O)[nH]c(=S)[nH]1 [Methylthiouracil],inactive: -0.0908
10,COc1ccccc1OCC(O)CO (stereo not given) [Guaifenesin],inactive: 0.098
11,Nc1nc(CC(=O)Nc2ccc(CCNC[C@H](O)c3ccccc3)cc2)cs1 [Mirabegron],inactive: 1.11
12,NC[C@@H]1O[C@H](O[C@H]2[C@@H](O)[C@H](O[C@@H]3[C@@H](O)[C@H](N)C[C@H](N)[C@H]3O[C@H]3O[C@H](CO)[C@@H](O)[C@H](O)[C@H]3N)O[C@@H]2CO)[C@H](N)[C@@H](O)[C@@H]1O [Paromomycin Sulfate],inactive: -0.069
13,CC[C@]1(O)C[C@H]2CN(CCc3c([nH]c4ccccc34)[C@@](C(=O)OC)(c3cc4c(cc3OC)N(C=O)[C@H]3[C@@](O)(C(=O)OC)[C@H](OC(C)=O)[C@]5(CC)C=CCN6CC[C@]43[C@@H]65)C2)C1 [Vincristine],active: -2.43
14,Cc1cccc(C)c1OCC(C)N (stereo not given) [Mexiletine HCl],inactive: 0.216
15,CN[C@@H](C)C(=O)N[C@H]1CN(C(=O)CC(C)C)CC[C@H]2CC[C@@H](C(=O)NC(c3ccccc3)c3ccccc3)N2C1=O,inactive: -0.0994
16,CN1[C@@H]2CC[C@H]1C[C@@H](OC(=O)c1c[nH]c3ccccc13)C2 [Tropisetron],inactive: 0.397
17,NC(=O)c1cn(Cc2c(F)cccc2F)nn1 [Rufinamide],inactive: 0.982
18,Cc1cc(O)c2c(c1)C(=O)c1cccc(O)c1C2=O [Chrysophanic Acid],inactive: -0.0867
19,CC(C(=O)O)c1ccc(-c2ccccc2)c(F)c1 (stereo not given) [Flurbiprofen],inactive: -1.17
20,O=C(OCC(O)CO)c1ccccc1Nc1ccnc2cc(Cl)ccc12 (stereo not given) [Glafenine HCl],inactive: 0.372

row,SMILES,nuclei number (z-score)
1,Cc1c(OCC(F)(F)F)ccnc1C[S@@+]([O-])c1nc2ccccc2[nH]1 [Dexlansoprazole],inactive: 0.126
2,CC[C@H]1OC(=O)[C@H](C)[C@@H](O[C@H]2C[C@@](C)(OC)[C@@H](O)[C@H](C)O2)[C@H](C)[C@@H](O[C@@H]2O[C@H](C)C[C@H](N(C)C)[C@H]2O)[C@](C)(O)C[C@@H](C)C(=O)[C@H](C)[C@H]2OC(=O)O[C@@]21C [Erythromycin Cyclocarbonate],inactive: 2.69
3,C[C@H]1O[C@@H](O[C@H]2[C@@H](O)C[C@H](O[C@H]3[C@@H](O)C[C@H](O[C@H]4CC[C@@]5(C)[C@H](CC[C@@H]6[C@@H]5C[C@@H](O)[C@]5(C)[C@@H](C7=CC(=O)OC7)CC[C@]65O)C4)O[C@@H]3C)O[C@@H]2C)C[C@H](O)[C@@H]1O [Digoxin],active: -4.17
4,O=C(Nc1cccc(C(F)(F)F)c1)Nc1cc(S(=O)(=O)NC2CC2)ccc1-c1ccsc1,inactive: 0.948
5,O=C1c2c(O)cccc2C([C@@H]2O[C@H](CO)[C@@H](O)[C@H](O)[C@H]2O)c2cc(CO)cc(O)c21 (stereo not given in full) [Aloin],inactive: -0.244
6,CC(NC(=O)C(Cc1ccccc1)NC(=O)OCc1ccccc1)C(=O)CF (stereo not given),inactive: 1.27
7,C=CCc1cccc(/C=N/NC(=O)CN2CCN(Cc3ccccc3)CC2)c1O,active: -5.45
8,CO/N=C(\C(=O)N[C@@H]1C(=O)N2C(C(=O)O)=C(CSc3nnnn3C)CS[C@H]12)c1csc(N)n1 [Cefmenoxime hydrochloride],inactive: 1.23
9,CC(C(=O)O)c1ccc2c(c1)[nH]c1ccc(Cl)cc12 (stereo not given) [Carprofen],inactive: 0.355
10,CN(C)C(=O)C(CCN1CCC(O)(c2ccc(Cl)cc2)CC1)(c1ccccc1)c1ccccc1 [Loperamide HCl],inactive: -0.402
11,CC(=O)C1C(=O)C=C(C)OC1=O (stereo not given) [Dehydroacetic acid],inactive: -0.182
12,Cc1ccccc1C(=O)Nc1ccc(C(=O)N2CCCC(O)c3cc(Cl)ccc32)c(C)c1 (stereo not given) [Tolvaptan],inactive: 7.23
13,Nc1nc(-c2nn(Cc3ccccc3F)c3ncccc23)ncc1C1CC1,inactive: 0.502
14,CC1(C)O[C@H]2CC(=O)OC[C@]23[C@H]2CC[C@@]4(C)[C@H](c5ccoc5)OC(=O)[C@H]5O[C@]54[C@]2(C)C(=O)C[C@@H]13 [Limonin],inactive: 3.17
15,CN[C@@H]1[C@@H](O[C@H]2O[C@H](CO)[C@@H](N)[C@H](O)[C@H]2O)OC2C[C@@H](N)[C@@H](O[C@H]3[C@H](O)[C@@H](O)[C@H](N)C[C@@H]3N)OC2[C@@H]1O (stereo not given in full) [Apramycin Sulfate],inactive: -0.748
16,CC12CCC(CC1=O)C2(C)C (stereo not drawn) [(+)-Camphor],inactive: 0.367
17,C[C@@H]1NC(=O)[C@@H](N)CNC(=O)[C@H](C2CCNC(=N)N2)NC(=O)/C(=C/NC(N)=O)NC(=O)[C@H](CNC(=O)CC(N)CCCN)NC1=O.N=C1NCC[C@H]([C@@H]2NC(=O)/C(=C/NC(N)=O)NC(=O)[C@H](CNC(=O)C[C@@H](N)CCCN)NC(=O)[C@H](CO)NC(=O)[C@@H](N)CNC2=O)N1 [Capreomycin Sulfate],inactive: -0.238
18,CC/C(=C(\c1ccc(O)cc1)c1ccc(OCCN(C)C)cc1)c1ccccc1 [4-Hydroxytamoxifen],inactive: -1.99
19,CCN(CC)CCOC(=O)c1ccc(N)cc1Cl [Chloroprocaine HCl],inactive: 2.9
20,COc1ccc(O)cc1 [Mequinol],inactive: 0.947

row,SMILES,nuclei number (z-score)
1,CCCCCCOC(=O)NC(=N)c1ccc(NCc2nc3cc(C(=O)N(CCC(=O)OCC)c4ccccn4)ccc3n2C)cc1 [Dabigatran Etexilate],inactive: 0.635
2,Cc1c(-c2ccccc2)oc2c(C(=O)OCCN3CCCCC3)cccc2c1=O [Flavoxate HCl],inactive: -0.417
3,CC[C@@](C)(Nc1ccnc(-c2c[nH]c3ncccc23)n1)C(=O)NCC(F)(F)F [Decernotinib (VX-509)],inactive: 0.987
4,NC(=O)c1cnc(N[C@@H]2CCCC[C@@H]2N)nc1Nc1cccc(-n2nccn2)c1,inactive: 0.206
5,CN[C@@H]1[C@H](O)[C@H](NC)[C@H]2O[C@@]3(O)C(=O)C[C@@H](C)O[C@H]3O[C@@H]2[C@H]1O [Spectinomycin HCl],inactive: 0.139
6,O=C(/C=C/c1cncc(F)c1)c1c(-c2ccccc2)c2cc(Cl)ccc2[nH]c1=O,active: -6.65
7,NS(=O)(=O)c1cc2c(cc1Cl)NC(C(Cl)Cl)NS2(=O)=O (stereo not given) [Trichlormethiazide],inactive: 0.073
8,COC(=O)C1=CO[C@@H](O[C@@H]2O[C@H](CO)[C@@H](O)[C@H](O)[C@H]2O)[C@@H]2C(CO)=CC[C@H]12 [Geniposide],inactive: -1.11
9,C#Cc1cccc(Nc2ncnc3cc(OCCOC)c(OCCOC)cc23)c1 [Erlotinib],inactive: 0.824
10,C#Cc1cccc(Nc2ncnc3cc(OCCOC)c(OCCOC)cc23)c1 [Erlotinib HCl (OSI-744)],inactive: 0.687
11,COc1ccc(Cn2ccc3ccc(C(=O)NO)cc32)cc1,inactive: 0.0273
12,CC#CC(=O)N1CC[C@@H](n2c(=O)n(-c3ccc(Oc4ccccc4)cc3)c3c(N)ncnc32)C1,inactive: -0.443
13,Cc1onc(-c2ccccc2Cl)c1C(=O)N[C@@H]1C(=O)N2[C@@H]1SC(C)(C)[C@@H]2C(=O)O [Cloxacillin Sodium],inactive: -0.705
14,CN1CCC[C@@H]1Cc1c[nH]c2ccc(CCS(=O)(=O)c3ccccc3)cc12 [Eletriptan HBr],inactive: -1.19
15,COc1cc2c(Oc3ccc(NC(=O)C4(C(=O)Nc5ccc(F)cc5)CC4)cc3F)ccnc2cc1OCCCN1CCOCC1,active: -2.72
16,C[S+]([O-])c1ccc(-c2nc(-c3ccc(F)cc3)c(-c3ccncc3)[nH]2)cc1 (stereo not given),inactive: -0.0734
17,COc1ccccc1Oc1c(NS(=O)(=O)c2ccc(C(C)(C)C)cc2)nc(-c2ncccn2)nc1OCCO [Bosentan],inactive: -0.0096
18,COc1ccccc1Oc1c(NS(=O)(=O)c2ccc(C(C)(C)C)cc2)nc(-c2ncccn2)nc1OCCO [Bosentan Hydrate],inactive: 1.44
19,CC1=NN(c2ccccc2)C(=O)C1 [Edaravone],inactive: -0.81
20,CCOc1ccc2ccccc2c1C(=O)N[C@@H]1C(=O)N2[C@@H]1SC(C)(C)[C@@H]2C(=O)O [Nafcillin Sodium],inactive: -0.307
